Experimental data taken from publication PMC4605305, “TRAP150 interacts with the RNA-binding domain of PSF and antagonizes splicing of numerous PSF-target genes in T cells” (Nucleic Acids Research, 2015).
Results are given in words; binding and its absence hold for the method and conditions named. For some of these results: In cells and extracts the contact can be indirect. Some binding calls cover weakened binding; strength is not graded here. For some of these results: Sequences can lack the tags named with a protein.

B1: His-hnRNPL (protein, UniProt P14866 1-589)
chain: MSRRLLPRAEKRRRRLEQRQQPDEQRRRSGAMVKMAAAGGGGGGGRYYGGGSEGGRAPKRLKTDNAGDQHGGGGGGGGGAGAAGGGGGGENYDDPHKTPASPVVHIRGLIDGVVEADLVEALQEFGPISYVVVMPKKRQALVEFEDVLGACNAVNYAADNQIYIAGHPAFVNYSTSQKISRPGDSDDSRSVNSVLLFTILNPIYSITTDVLYTICNPCGPVQRIVIFRKNGVQAMVEFDSVQSAQRAKASLNGADIYSGCCTLKIEYAKPTRLNVFKNDQDTWDYTNPNLSGQGDPGSNPNKRQRQPPLLGDHPAEYGGPHGGYHSHYHDEGYGPPPPHYEGRRMGPPVGGHRRGPSRYGPQYGHPPPPPPPPEYGPHADSPVLMVYGLDQSKMNCDRVFNVFCLYGNVEKVKFMKSKPGAAMVEMADGYAVDRAITHLNNNFMFGQKLNVCVSKQPAIMPGQSYGLEDGSCSYKDFSESRNNRFSTPEQAAKNRIQHPSNVLHFFNAPLEVTEENFFEICDELGVKRPSSVKVFSGKSERSSSGLLEWESKSDALETLGFLNHYQMKNPNGPYPYTLKLCFSTAQHAS
B2: HisFLAG-PSF ΔRRMs (protein, UniProt P23246 1-298; P23246 450-707)
chain: MSRDRFRSRGGGGGGFHRRGGGGGRGGLHDFRSPPPGMGLNQNRGPMGPGPGQSGPKPPIPPPPPHQQQQQPPPQQPPPQQPPPHQPPPHPQPHQQQQPPPPPQDSSKPVVAQGPGPAPGVGSAPPASSSAPPATPPTSGAPPGSGPGPTPTPPPAVTSAPPGAPPPTPPSSGVPTTPPQAGGPPPPPAAVPGPGPGPKQGPGPGGPKGGKMPGGPKPGGGPGLSTPGGHPKPPHRGGGEPRGGRQHHPPYHQQHHQGPPPGGPGGRSEEKISDSEGFKANLSLLRRPGEKTYTQRCRGGSGHMLEQLDDEDGLPEKLAQKNPMYQKERETPPRFAQHGTFEYEYSQRWKSLDEMEKQQREQVEKNMKDAKDKLESEMEDAYHEHQANLLRQDLMRRQEELRRMEELHNQEMQKRKEMQLRQEEERRRREEEMMIRQREMEEQMRRQREESYSRMGYMDPRERDMRMGGGGAMNMGDPYGSGGQKFPPLGGGGGIGYEANPGVPPATMSGSMMGSDMRTERFGQGGAGPVGGQGPRGMGPGTPAGYGRGREEYEGPNKKPRF
B3: HisFLAG-PSF exRRM1 (266-365) (domain or fragment, UniProt P23246 266-365)
chain: GRSEEKISDSEGFKANLSLLRRPGEKTYTQRCRLFVGNLPADITEDEFKRLFAKYGEPGEVFINKGKGFGFIKLESRALAEIAKAELDDTPMRGRQLRVR
B4: HisFLAG-PSF exRRM2 (366-484) (domain or fragment, UniProt P23246 366-484)
chain: FATHAAALSVRNLSPYVSNELLEEAFSQFGPIERAVVIVDDRGRSTGKGIVEFASKPAARKAFERCSEGVFLLTTTPRPVIVEPLEQLDDEDGLPEKLAQKNPMYQKERETPPRFAQHG
B5: HisFLAG-PSF minRRMs (299-449) (domain or fragment, UniProt P23246 299-449)
chain: LFVGNLPADITEDEFKRLFAKYGEPGEVFINKGKGFGFIKLESRALAEIAKAELDDTPMRGRQLRVRFATHAAALSVRNLSPYVSNELLEEAFSQFGPIERAVVIVDDRGRSTGKGIVEFASKPAARKAFERCSEGVFLLTTTPRPVIVEP
B6: PSPC1 (endogenous, JSL1 nuclear extract) (protein, UniProt Q8WXF1 1-523)
chain: MMLRGNLKQVRIEKNPARLRALESAVGESEPAAAAAMALALAGEPAPPAPAPPEDHPDEEMGFTIDIKSFLKPGEKTYTQRCRLFVGNLPTDITEEDFKRLFERYGEPSEVFINRDRGFGFIRLESRTLAEIAKAELDGTILKSRPLRIRFATHGAALTVKNLSPVVSNELLEQAFSQFGPVEKAVVVVDDRGRATGKGFVEFAAKPPARKALERCGDGAFLLTTTPRPVIVEPMEQFDDEDGLPEKLMQKTQQYHKEREQPPRFAQPGTFEFEYASRWKALDEMEKQQREQVDRNIREAKEKLEAEMEAARHEHQLMLMRQDLMRRQEELRRLEELRNQELQKRKQIQLRHEEEHRRREEEMIRHREQEELRRQQEGFKPNYMENREQEMRMGDMGPRGAINMGDAFSPAPAGNQGPPPMMGMNMNNRATIPGPPMGPGPAMGPEGAANMGTPMMPDNGAVHNDRFPQGPPSQMGSPMGSRTGSETPQAPMSGVGPVSGGPGGFGRGSQGGNFEGPNKRRRY
B7: Matrin 3 (endogenous, JSL1 nuclear extract) (protein, UniProt P43243 1-847)
chain: MSKSFQQSSLSRDSQGHGRDLSAAGIGLLAAATQSLSMPASLGRMNQGTARLASLMNLGMSSSLNQQGAHSALSSASTSSHNLQSIFNIGSRGPLPLSSQHRGDADQASNILASFGLSARDLDELSRYPEDKITPENLPQILLQLKRRRTEEGPTLSYGRDGRSATREPPYRVPRDDWEEKRHFRRDSFDDRGPSLNPVLDYDHGSRSQESGYYDRMDYEDDRLRDGERCRDDSFFGETSHNYHKFDSEYERMGRGPGPLQERSLFEKKRGAPPSSNIEDFHGLLPKGYPHLCSICDLPVHSNKEWSQHINGASHSRRCQLLLEIYPEWNPDNDTGHTMGDPFMLQQSTNPAPGILGPPPPSFHLGGPAVGPRGNLGAGNGNLQGPRHMQKGRVETSRVVHIMDFQRGKNLRYQLLQLVEPFGVISNHLILNKINEAFIEMATTEDAQAAVDYYTTTPALVFGKPVRVHLSQKYKRIKKPEGKPDQKFDQKQELGRVIHLSNLPHSGYSDSAVLKLAEPYGKIKNYILMRMKSQAFIEMETREDAMAMVDHCLKKALWFQGRCVKVDLSEKYKKLVLRIPNRGIDLLKKDKSRKRSYSPDGKESPSDKKSKTDGSQKTESSTEGKEQEEKSGEDGEKDTKDDQTEQEPNMLLESEDELLVDEEEAAALLESGSSVGDETDLANLGDVASDGKKEPSDKAVKKDGSASAAAKKKLKKVDKIEELDQENEAALENGIKNEENTEPGAESSENADDPNKDTSENADGQSDENKDDYTIPDEYRIGPYQPNVPVGIDYVIPKTGFYCKLCSLFYTNEEVAKNTHCSSLPHYQKLKKFLNKLAEERRQKKET

The binders below were run against T1, GST-TRAPΔN (TRAP150 266-955) (UniProt Q9Y2W1) (assay: pull-down; 40 ug GST-tagged bait on glutathione sepharose 4B beads; prey incubated 1.5 h at 4°C in PBS; washes with PBS supplemented with 300 mM NaCl; western blot; both purified).
T1 sequence: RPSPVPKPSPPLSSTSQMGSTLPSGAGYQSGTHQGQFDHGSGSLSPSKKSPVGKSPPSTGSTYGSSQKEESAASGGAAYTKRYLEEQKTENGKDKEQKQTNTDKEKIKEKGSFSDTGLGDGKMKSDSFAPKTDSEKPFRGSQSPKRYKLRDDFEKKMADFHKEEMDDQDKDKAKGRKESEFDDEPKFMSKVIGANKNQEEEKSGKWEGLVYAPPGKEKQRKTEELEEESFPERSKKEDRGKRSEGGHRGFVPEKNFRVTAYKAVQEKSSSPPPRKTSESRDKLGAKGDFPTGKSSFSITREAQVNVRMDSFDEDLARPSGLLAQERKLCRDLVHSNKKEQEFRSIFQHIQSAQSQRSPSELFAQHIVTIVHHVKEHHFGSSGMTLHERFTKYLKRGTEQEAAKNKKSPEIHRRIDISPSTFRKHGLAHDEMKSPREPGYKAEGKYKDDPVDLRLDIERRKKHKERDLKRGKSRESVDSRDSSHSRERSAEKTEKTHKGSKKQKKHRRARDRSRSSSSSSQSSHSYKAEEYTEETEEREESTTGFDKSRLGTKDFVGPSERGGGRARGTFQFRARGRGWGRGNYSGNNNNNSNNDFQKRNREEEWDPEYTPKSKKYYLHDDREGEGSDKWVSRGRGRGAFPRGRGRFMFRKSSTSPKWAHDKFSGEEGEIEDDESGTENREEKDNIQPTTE

Q: How did the binding turn out when B1 was run?
A: no binding

Q: How did the binding turn out when B2 was run?
A: no binding

Q: B3 was tested. Which binding did it give?
A: no binding

Q: How did the binding turn out when B4 was run?
A: no binding

Q: B5 was tested. Which binding did it give?
A: no binding

These binders were tested on T2, PSF (endogenous, JSL1 nuclear extract) (human (endogenous in JSL1 Jurkat cells)) (UniProt P23246) (assay: co-IP; IP with PSF antibody from RNase-treated nuclear extract of JSL1 cells, unstimulated or stimulated with PMA; protein G Dynabeads; western blot).
T2 sequence: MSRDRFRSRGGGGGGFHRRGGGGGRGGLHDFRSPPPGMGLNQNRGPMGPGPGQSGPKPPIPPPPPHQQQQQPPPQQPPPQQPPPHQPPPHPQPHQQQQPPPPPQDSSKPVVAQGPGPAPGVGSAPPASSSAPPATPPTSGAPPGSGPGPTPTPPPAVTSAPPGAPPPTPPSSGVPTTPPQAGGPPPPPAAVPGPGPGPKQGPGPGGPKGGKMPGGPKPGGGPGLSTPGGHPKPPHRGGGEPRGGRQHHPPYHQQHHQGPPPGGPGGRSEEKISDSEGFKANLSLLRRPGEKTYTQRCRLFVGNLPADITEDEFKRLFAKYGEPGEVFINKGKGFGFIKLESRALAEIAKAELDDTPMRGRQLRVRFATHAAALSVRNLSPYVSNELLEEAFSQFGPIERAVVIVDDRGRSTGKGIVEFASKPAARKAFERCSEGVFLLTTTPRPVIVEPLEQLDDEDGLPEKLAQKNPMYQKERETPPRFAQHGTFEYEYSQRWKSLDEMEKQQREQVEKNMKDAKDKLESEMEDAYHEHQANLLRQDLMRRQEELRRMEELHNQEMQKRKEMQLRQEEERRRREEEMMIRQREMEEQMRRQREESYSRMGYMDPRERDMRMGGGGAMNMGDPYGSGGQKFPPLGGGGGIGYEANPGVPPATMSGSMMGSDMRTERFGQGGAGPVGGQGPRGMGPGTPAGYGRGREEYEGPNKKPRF

Q: B6 was tested. Which binding did it give?
A: binds

Q: B7 was tested. Which binding did it give?
A: binds
